Measurements as given in PubChem BioAssay AID686978 (National Center for Advancing Translational Sciences (NCATS), 2013).
The whole screen tested about 420,000 compounds, of which about 64,000 (15%) were called active. The inconclusive results got no clear call from the source; some entries with a clear call stand among them for comparison. Calls follow the shape of the dose curve; as a rule, active = well fitted inhibition curve with a large enough effect; inconclusive = small, poorly fitted or top-dose-only effect; inactive = flat fitted curve, though single readings scatter. No potency is given beside an inconclusive call; the fits are too rough.

assay: qHTS for Inhibitors of human tyrosyl-DNA phosphodiesterase 1 (TDP1): qHTS in cells in absence of CPT; conditions: DT40 Tdp1-/- hTDP1 cells, no CPT, ATP luminescence, 48 h; activity change, negative = growth inhibition: at 46.2 µM (top of the series); also: nearly all actives have a fitted effect of over 55% in size
Summary of the method: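 Luminescent ATP content (CellTiter-Glo) served as the growth readout. Knockout chicken DT40 cells expressing human TDP1 were exposed to compounds without camptothecin for a minimum 48 hr at 37 °C.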
% is scaled to controls: 0 for no effect and ±100 for the full control effect; potency is read from the fitted curve at half-maximal effect; tags tell the direction and shape of the fitted curve.

| SMILES | activity change, negative = growth inhibition | Potency |
| --- | --- | --- |
| CCOC(=O)C1CCN(C(=O)c2cc3c(s2)-c2ccccc2OC3)CC1 | inconclusive: -32.1% [inhibitor] | – |
| CC(=O)c1ccc(N(C(=O)CS(=O)CC(=O)Nc2ccc(F)cc2)C(C(=O)NC2CCCCC2)c2cccs2)cc1 (stereo not given) | inconclusive: -30% [inhibitor] | – |
| Cc1cc(N2C(=O)C3CC=CCC3C2=O)no1 (stereo not given) | inactive: -6.77% | – |
| O=C(CSc1n[nH]c(-c2ccccc2Cl)n1)N1CCN(c2ccc(F)cc2)CC1 | – | inconclusive [inhibitor, single point] |
| COc1ccccc1-c1ccc2c(c1)C(C)(Cc1cccc(C#N)c1)C(=O)N2 (stereo not given) | – | active: 16.4 µM |
| CCCCOc1ccc(C(=O)NC(=S)Nc2ccc(CN3CCOCC3)cc2)cc1 | – | inconclusive [inhibitor, partial curve] |
| CC(C)NC(=O)C1C(c2ccccc2)=Nc2ccccc2N1C(=O)c1ccc(C(F)(F)F)cc1 (stereo not given) | – | inconclusive [inhibitor, single point] |
| Cc1ccc(-c2cc(C(=O)Nc3ccc(S(=O)(=O)Nc4cc(C)on4)cc3)c3ccccc3n2)c(C)c1 | inactive: -3.73% | – |
| CCO/N=C/c1ccc(OC)c(Oc2nc(OC)cc(OC)n2)c1 | inconclusive: -31.7% [inhibitor] | – |
| CC(=O)Nc1ccccc1-c1nc2ccccc2n(C(C)C(=O)c2ccc(C)c(C)c2)c1=O (stereo not given) | – | inconclusive [inhibitor, partial curve, poor fit] |
| CCOC(=O)c1c(C)n(C)c2ccc(OCC(O)CN3CCC(C)CC3)cc12 (stereo not given) | – | inconclusive [inhibitor, single point] |
| COCCN(Cc1cc2ccc(C)cc2[nH]c1=O)S(=O)(=O)c1ccccc1 | inactive: -18.7% | – |
| CC(=O)Nc1nc(C)c(C(C)=O)s1 | – | inconclusive [inhibitor, partial curve] |
| CC(C)c1c(C(=O)N/N=C2\CCc3ccccc32)nnn1-c1nonc1N | inactive: -0.0552% | – |
| COCC(=O)Nc1cc([N+](=O)[O-])ccc1OC | inactive: 0.84% | – |
| CC(C)n1nc(C(=O)Oc2ccc(Cl)cc2)c2ccccc2c1=O | inactive: -23.3% | – |
| CCN1CCN(C(=O)c2cc3c(s2)-c2c(C)cccc2OC3)CC1 | – | inconclusive [inhibitor, partial curve] |
| COCCn1c(=O)c(-c2cccs2)nc2cncnc21 | inactive: -1.68% | – |
| c1ccc(Cc2noc(CN3CCN(C4CCc5ccccc5C4)CC3)n2)cc1 (stereo not given) | – | inconclusive [inhibitor, single point] |
| Fc1ccc(-c2cnn3c(-c4cccs4)ccnc23)cc1 | – | inconclusive [inhibitor, partial curve] |
